T1: RBFOX1 RRM RbFoxmut (Fox-RRM*) (Homo sapiens, UniProt Q9NWB1 109-208, R118D;E147R;N151S;E152T)
T1 sequence: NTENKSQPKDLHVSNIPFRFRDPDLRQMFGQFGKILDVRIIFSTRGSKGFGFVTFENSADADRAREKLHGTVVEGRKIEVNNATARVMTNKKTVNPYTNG

B1: ACAUGAA (DNA:RNA)
RNA: GGGAGACCGGAAUUCAGAUUGUCCACAUGAAUUAAAUCCCGUCGUAGCCACCA
DNA 1: CAATCTGAATTCCGGTCTCCC
DNA 2: TGGTGGCTACGACGGGATT
B2: GAUUAAA (DNA:RNA)
RNA: B1 RNA with A25G, C26A, A27U, G29A
DNA 1: CAATCTGAATTCCGGTCTCCC
DNA 2: TGGTGGCTACGACGGGATT
B3: UUGGCGG (DNA:RNA)
RNA: GGGAGACCGGAAUUCAGAUUGUCCUUGGCGGUUAAAUCCCGUCGUAGCCACCA
DNA 1: CAATCTGAATTCCGGTCTCCC
DNA 2: TGGTGGCTACGACGGGATT
B4: GACCAAG (DNA:RNA)
RNA: B1 RNA with A25G, C26A, A27C, U28C, G29A, A31G
DNA 1: CAATCTGAATTCCGGTCTCCC
DNA 2: TGGTGGCTACGACGGGATT
B5: CUAACGG (DNA:RNA)
RNA: B3 RNA with U25C, G27A, G28A
DNA 1: CAATCTGAATTCCGGTCTCCC
DNA 2: TGGTGGCTACGACGGGATT
B6: GCACCAU (DNA:RNA)
RNA: B1 RNA with A25G, U28C, G29C, A31U
DNA 1: CAATCTGAATTCCGGTCTCCC
DNA 2: TGGTGGCTACGACGGGATT
B7: CGCUCCC (DNA:RNA)
RNA: B1 RNA with A25C, C26G, A27C, G29C, A30C, A31C
DNA 1: CAATCTGAATTCCGGTCTCCC
DNA 2: TGGTGGCTACGACGGGATT
B8: CCCGGCA (DNA:RNA)
RNA: B1 RNA with A25C, A27C, U28G, A30C
DNA 1: CAATCTGAATTCCGGTCTCCC
DNA 2: TGGTGGCTACGACGGGATT
B9: CGCAACA (DNA:RNA)
RNA: B1 RNA with A25C, C26G, A27C, U28A, G29A, A30C
DNA 1: CAATCTGAATTCCGGTCTCCC
DNA 2: TGGTGGCTACGACGGGATT
B10: UCAUGUC (DNA:RNA)
RNA: B1 RNA with A25U, A30U, A31C
DNA 1: CAATCTGAATTCCGGTCTCCC
DNA 2: TGGTGGCTACGACGGGATT
B11: GGGUAAA (DNA:RNA)
RNA: B1 RNA with A25G, C26G, A27G, G29A
DNA 1: CAATCTGAATTCCGGTCTCCC
DNA 2: TGGTGGCTACGACGGGATT
B12: GCGAUCU (DNA:RNA)
RNA: B1 RNA with A25G, A27G, U28A, G29U, A30C, A31U
DNA 1: CAATCTGAATTCCGGTCTCCC
DNA 2: TGGTGGCTACGACGGGATT
B13: GGGGAUC (DNA:RNA)
RNA: B3 RNA with U25G, U26G, C29A, G30U, G31C
DNA 1: CAATCTGAATTCCGGTCTCCC
DNA 2: TGGTGGCTACGACGGGATT
B14: GGGCUGG (DNA:RNA)
RNA: B3 RNA with U25G, U26G, G28C, C29U
DNA 1: CAATCTGAATTCCGGTCTCCC
DNA 2: TGGTGGCTACGACGGGATT
B15: GGCUAAG (DNA:RNA)
RNA: B1 RNA with A25G, C26G, A27C, G29A, A31G
DNA 1: CAATCTGAATTCCGGTCTCCC
DNA 2: TGGTGGCTACGACGGGATT
B16: GCCGGUA (DNA:RNA)
RNA: B1 RNA with A25G, A27C, U28G, A30U
DNA 1: CAATCTGAATTCCGGTCTCCC
DNA 2: TGGTGGCTACGACGGGATT
B17: CGCCGGG (DNA:RNA)
RNA: B3 RNA with U25C, U26G, G27C, G28C, C29G
DNA 1: CAATCTGAATTCCGGTCTCCC
DNA 2: TGGTGGCTACGACGGGATT
B18: ACCUGGG (DNA:RNA)
RNA: B1 RNA with A27C, A30G, A31G
DNA 1: CAATCTGAATTCCGGTCTCCC
DNA 2: TGGTGGCTACGACGGGATT
B19: UGUGUUC (DNA:RNA)
RNA: B3 RNA with U26G, G27U, C29U, G30U, G31C
DNA 1: CAATCTGAATTCCGGTCTCCC
DNA 2: TGGTGGCTACGACGGGATT
B20: CGUGUAA (DNA:RNA)
RNA: B1 RNA with A25C, C26G, A27U, U28G, G29U
DNA 1: CAATCTGAATTCCGGTCTCCC
DNA 2: TGGTGGCTACGACGGGATT

Substitutions are numbered along the chain they refer to; changes in the protein carry UniProt numbers. The list shows a part of the results.

This assay deals with T1, RBFOX1 RRM RbFoxmut (Fox-RRM*). Description: EMSA; HiTS-Eq, 1 nM pool, 10 min; buffer printed only for the single-RNA assays: 10 mM Tris pH 7.5, 150 mM NaCl, 3.4 mM EDTA, 0.001% NP-40, 30 C. The conditions noted are these: tags: His6 N-terminal (pET28a); label: 5' 32P. The procedure, abridged: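 Purified RbFox RRM, wild type or mutant, was incubated for 10 min in 50 µL with 1 nM of a 5′-radiolabelled RNA pool carrying 7 randomized nucleotides, whose flanks were annealed to DNA oligonucleotides, over a series of increasing protein concentrations. Unbound RNA was resolved on 8% native PAGE, cut out, reverse-transcribed, barcoded by PCR and sequenced on an Illumina HiSeq 2500. Relative association constants were derived from changes in read counts for each RNA species versus the control reaction and normalised to the cognate motif.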
For orientation: Mobility shift assays separate free from complexed probe on a gel.
On to B1, for which the binding signal is 0.143 KA relative to UGCAUGU.
The value for B2 was 0.0844 KA relative to UGCAUGU; that for B3 was 0.115 KA relative to UGCAUGU.
The value for B4 was 0.0689 KA relative to UGCAUGU; that for B5 was 0.0713 KA relative to UGCAUGU; that for B6 was 0.0804 KA relative to UGCAUGU.
With B7 the figure was 0.0599 KA relative to UGCAUGU; with B8, 0.129 KA relative to UGCAUGU.
As to B9, the binding signal was 0.102 KA relative to UGCAUGU.
The value for B10 was 0.199 KA relative to UGCAUGU; that for B11 was 0.103 KA relative to UGCAUGU.
With B12 the figure was 0.0432 KA relative to UGCAUGU; with B13, 0.205 KA relative to UGCAUGU.
The value for B14 was 0.204 KA relative to UGCAUGU.
Consider B15, for which the binding signal was 0.0824 KA relative to UGCAUGU.
With B16 the figure was 0.0981 KA relative to UGCAUGU; with B17, 0.0766 KA relative to UGCAUGU; with B18, 0.0799 KA relative to UGCAUGU.
With B19 the figure was 0.108 KA relative to UGCAUGU.
On to B20, for which the binding signal was 0.144 KA relative to UGCAUGU.

Source of the values: paper PMC9911399, “Two distinct binding modes provide the RNA-binding protein RbFox with extraordinary sequence specificity”.
